{"source": "PubChem BioAssay AID485344", "about": "(National Center for Advancing Translational Sciences (NCATS), 2010)", "note": "About 6,900 (2%) of roughly 340,000 compounds were called active. Cut-off read from the data, not from the text of the source: active = inhibition above about 30%; inactive = below that, where a call was filed. The list shows a part of the results, in another mix than the full data. Entries without a call were filed so in the source.", "data": [{"target": "D(2) dopamine receptor (Homo sapiens) (UniProt P14416)", "sequence (P14416 whole entry, looked up)": "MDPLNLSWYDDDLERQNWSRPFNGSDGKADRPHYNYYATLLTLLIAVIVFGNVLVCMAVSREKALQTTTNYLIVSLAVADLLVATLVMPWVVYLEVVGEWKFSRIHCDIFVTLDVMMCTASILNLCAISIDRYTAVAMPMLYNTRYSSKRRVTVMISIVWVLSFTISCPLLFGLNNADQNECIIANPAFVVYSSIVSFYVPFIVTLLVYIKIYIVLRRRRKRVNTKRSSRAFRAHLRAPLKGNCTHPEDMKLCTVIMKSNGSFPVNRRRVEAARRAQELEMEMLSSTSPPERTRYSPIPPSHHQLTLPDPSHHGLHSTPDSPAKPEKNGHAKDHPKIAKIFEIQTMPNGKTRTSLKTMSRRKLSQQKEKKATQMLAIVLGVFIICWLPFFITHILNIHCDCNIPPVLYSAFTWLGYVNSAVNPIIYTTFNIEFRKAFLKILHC", "experiment": "HTS Assay for Allosteric Antagonists of the Human D2 Dopamine Receptor: Primary Screen for Antagonists; note: 0% is about no effect", "conditions": "HEK293 TREx D2 cells, calcium flux, dopamine EC80; at 10 µM; stronger effect = higher value", "summary_of_the_method": "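Dopamine at EC80 is the agonist stimulus; test compounds precede it by 180 s. Calcium flux read kinetically in a force-coupled, inducible HEK293 T-REx D2 cell line.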", "values": [{"smiles": "Cc1ccc(CNC(=O)CSCc2nc(-c3ccc(Cl)cc3)oc2C)cc1", "inhibition": "21.6%"}, {"smiles": "CCc1ccccc1NC(=O)Cn1cc(C(=O)c2ccc(Cl)cc2)c(=O)c2ccc(C)nc21", "inhibition": "6.43%"}, {"smiles": "Cc1cccc(OCCN2CCOCC2)c1C", "inhibition": "active: 41.1%"}, {"smiles": "COc1ccc2c(c1)c(CC(=O)Nc1cccc(F)c1C)c(C)n2C(=O)c1ccc(Cl)cc1", "inhibition": "18%"}, {"smiles": "S=C(NCCc1ccccc1)Nc1ccccc1N1CCOCC1", "inhibition": "active: 44.7%"}, {"smiles": "COc1cccc(-n2ccn(CC(=O)Nc3ccccc3F)c(=O)c2=O)c1", "inhibition": "2.51%"}, {"smiles": "O=C(O)c1cccc(CN2C(=O)S/C(=C/c3cccc([N+](=O)[O-])c3)C2=O)c1", "inhibition": "active: 33.6%"}, {"smiles": "Cc1cc(C)c2c(=O)cc(C(=O)Nc3sc4c(c3C#N)CCCC4)oc2c1", "inhibition": "-6.7%"}, {"smiles": "O=C(NCc1ccc(F)cc1)c1ccc2c(c1)N(Cc1c(F)cccc1Cl)C(=O)CS2", "inhibition": "2.1%"}, {"smiles": "CC1=C(c2ccc(C)cc2)S(=O)(=O)N(Cc2ccc(C(=O)NCc3ccccc3)cc2)C1=O", "inhibition": "3.48%"}, {"smiles": "Cc1ccccc1NC(=O)CN1C(=O)C2(SCC(=O)N2c2ccc(F)cc2)c2ccccc21", "note": "(centres undefined)", "inhibition": "-3.38%"}, {"smiles": "O=C(Nc1cc(C(F)(F)F)ccc1Cl)c1noc2c1CCCCC2", "inhibition": "2.86%"}, {"smiles": "Cc1oc(C(C)(C)C)cc1C(=O)NC1CCN(Cc2ccccc2)CC1", "inhibition": "active: 85.3%"}, {"smiles": "COCCCNC(=O)CSc1nc2cc3c(cc2c(=O)n1CCCCCC(=O)NCCc1ccc(OC)c(OC)c1)OCO3", "inhibition": "-22.1%"}, {"smiles": "CCc1nn2c(=O)cc(COC(=O)c3cccc(NC(=O)c4ccccc4C)c3)nc2s1", "inhibition": "12.3%"}, {"smiles": "Cc1ccc(C(C(=O)NC2CCCC2)N(C(=O)Cc2cccs2)c2ccc3c(c2)OCCO3)cc1", "note": "(centres undefined)", "inhibition": "active: 48.1%"}, {"smiles": "COc1ccccc1CNCC(=O)NCc1ccc(C)cc1", "inhibition": "active: 52.4%"}, {"smiles": "CCc1nc2c(cnn2-c2ccc(C)cc2)c(=O)n1-c1ccc(C)cc1", "inhibition": "-3.58%"}, {"smiles": "Cc1ccc(-c2noc(C(C)NC(=O)c3ccco3)n2)cc1", "note": "(centres undefined)", "inhibition": "-10.2%"}, {"smiles": "COc1ccc(S(=O)(=O)c2c(SC)nn(CC(=O)Nc3ccc(C)c(Cl)c3)c2N)cc1", "inhibition": "12.1%"}, {"smiles": "CC1=CCC(C(=O)O)C(C(=O)NC2CCCCC2)C1", "note": "(centres undefined)", "inhibition": "active: 44.6%"}, {"smiles": "COCc1nnc(NC(=O)C2CC(=O)N(CCc3ccc(F)cc3)C2)s1", "note": "(centres undefined)", "inhibition": "active: 30.1%"}, {"smiles": "O=C(CCN1CCN(c2ccccc2F)CC1)Nc1ccc2c(c1)OCO2", "inhibition": "active: 86.4%"}, {"smiles": "COC(=O)c1[nH]c2cc(C)ccc2c1NC(=O)CN1CCN(c2ccccc2OC)CC1", "inhibition": "active: 69.9%"}, {"smiles": "N#Cc1ccccc1OCCCN1CCC(Cc2ccccc2)CC1", "inhibition": "active: 84.5%"}, {"smiles": "Cc1ccc(C(=O)Nc2nnc(S(=O)(=O)N(C)Cc3ccco3)s2)cc1", "inhibition": "-3.36%"}, {"smiles": "CCn1cc(C(=O)NCCc2ccc(OC)c(OC)c2)c(=O)c2cc(S(=O)(=O)N3CCOCC3)ccc21", "inhibition": "2.34%"}, {"smiles": "CC1CCN(S(=O)(=O)c2ccc3c(ccn3CC(=O)NCc3ccccc3F)c2)CC1", "inhibition": "-3.93%"}, {"smiles": "COc1cccc(CNC(=O)c2ccc3c(c2)nc2n3CCOC2)c1OC", "inhibition": "-18.7%"}, {"smiles": "Cc1ccc(C)c(NC(=O)CN2CCN(C3CCCCC3)C(=O)C2=O)c1", "inhibition": "-18.8%"}, {"smiles": "Cc1cccc(-n2nnc(-c3nc(-c4ccccc4)no3)c2N)c1C", "inhibition": "6.89%"}, {"smiles": "CC12CCC(C(=O)N(CSC(=S)N/N=C\\c3ccccc3)C1=O)C2(C)C", "note": "(centres undefined)", "inhibition": "active: 32.4%"}, {"smiles": "COC(=O)c1ccc(C2c3c(oc4ccc(C)cc4c3=O)C(=O)N2Cc2ccc3c(c2)OCO3)cc1", "note": "(centres undefined)", "inhibition": "15.3%"}, {"smiles": "Cc1ccc(NC(=O)C[n+]2cc(-c3ccccc3)n3c2CCC3)c(C)c1", "inhibition": "active: 65.4%"}, {"smiles": "COc1cccc(CNC(=O)Cn2ccc3cc(S(=O)(=O)N4CCCC4)ccc32)c1OC", "inhibition": "13%"}, {"smiles": "Cc1ccc(S(=O)(=O)c2nnn3c2nc(NCc2ccc4c(c2)OCO4)c2sccc23)cc1", "inhibition": "2.66%"}, {"smiles": "COc1ccccc1C(=O)Nc1cccc(C(=O)OCc2cc(=O)n3nc(C4CC4)sc3n2)c1", "inhibition": "2.38%"}, {"smiles": "O=C(Nc1ccc(OC(F)(F)F)cc1)C(Cc1ccccc1)NS(=O)(=O)c1cccc2nsnc12", "note": "(centres undefined)", "inhibition": "-5.35%"}, {"smiles": "CC1CCCN(CCCNC(=O)c2ccc3c(c2)N(Cc2cccc(Cl)c2)C(=O)c2ccccc2S3(=O)=O)C1", "note": "(centres undefined)", "inhibition": "3.32%"}, {"smiles": "Cc1ccc(C)c(CNC(=O)c2ccc3c(c2)nc2n3CCOC2)c1", "inhibition": "-8.59%"}, {"smiles": "CC(C)Cc1nn2c(=O)cc(COC(=O)CNC(=O)c3ccc(C(C)(C)C)cc3)nc2s1", "inhibition": "12.2%"}, {"smiles": "CCCCn1c(=NC(=O)C(C)(C)Oc2ccc(Cl)cc2)c(C(=O)OCC)cc2c(=O)n3ccccc3nc21", "inhibition": "2.86%"}, {"smiles": "COc1cccc(N2CCN(C(=O)c3cc4c(s3)-c3c(C)cccc3OC4)CC2)c1", "inhibition": "9.42%"}, {"smiles": "COc1ccc(-c2nc(CN3CCN(C(=O)c4ccco4)CC3)c(C)o2)c(OC)c1C", "inhibition": "active: 92.2%"}, {"smiles": "Cc1ccc(NC(=O)CN2C(=O)COc3ccc(S(=O)(=O)N4CCCCCC4)cc32)cc1Cl", "inhibition": "7.32%"}, {"smiles": "O=C(Cc1ccccc1)Nc1c(C(=O)c2ccccc2)oc2ccccc12", "inhibition": "-1.54%"}, {"smiles": "COc1ccc(CNC(=O)c2cc3cc4ccc(C)cc4nc3o2)cc1", "inhibition": "-1.96%"}, {"smiles": "CCc1ccc(C(=O)COC(=O)C(Cc2c[nH]c3ccccc23)NC(=O)c2ccc(CC)cc2)cc1", "note": "(centres undefined)", "inhibition": "6.11%"}, {"smiles": "Cc1ccc(NC(=O)CSc2nnc(-c3nnn(-c4ccc(F)cc4)c3C)o2)cc1Br", "inhibition": "3.94%"}, {"smiles": "Cc1nc(-c2cccc(F)c2)sc1CCNC(=O)c1c(F)cccc1Cl", "inhibition": "6.18%"}, {"smiles": "CC(=O)NC1CC2CCCC(C1)N2Cc1ccc(C)cc1", "note": "(centres undefined)", "inhibition": "active: 53.8%"}, {"smiles": "Cc1ccc(NS(=O)(=O)c2ccc(-c3cnc(C4CC4)o3)cc2)cc1N(C)C", "inhibition": "-20.5%"}, {"smiles": "CC(C)Oc1ccc(C(=O)N2CCC(c3nc4ccccc4o3)CC2)cc1", "inhibition": "13%"}, {"smiles": "COc1ccc(-c2cc(C(=O)Oc3ccc(C)cc3)c3ccccc3n2)cc1", "inhibition": "-5.4%"}, {"smiles": "COc1cc(NC(=O)CSc2ncc3c(n2)-c2ccc(Cl)cc2N(Cc2ccccc2)S3(=O)=O)cc(OC)c1", "inhibition": "1.56%"}, {"smiles": "CC(=O)Nc1ccc(NC(=O)CSc2nccn2Cc2ccc3c(c2)OCO3)cc1", "inhibition": "1.03%"}, {"smiles": "O=C(Cn1ncc2c3ccccc3n(Cc3ccc(Cl)cc3)c2c1=O)NCCC1=CCCCC1", "inhibition": "-6.52%"}, {"smiles": "O=C1CSC2(C(=O)N(Cc3ccccc3F)c3ccccc32)N1c1cccc(C(F)(F)F)c1", "note": "(centres undefined)", "inhibition": "-4.13%"}, {"smiles": "CN(C)CCNC(=O)C1CCN(c2ncnc3c2nc2n3CCCCC2)CC1", "inhibition": "13.6%"}, {"smiles": "CCOc1ccccc1CNC(=O)CCc1c(C)nn(-c2ccc(N3CCCCC3)nn2)c1C", "inhibition": "-6.05%"}, {"smiles": "CC(NC(=O)C1CCN(S(=O)(=O)c2ccc(F)cc2)CC1)c1ccccc1", "note": "(centres undefined)", "inhibition": "-5.83%"}, {"smiles": "CN1CCC(=C2c3ccccc3CCc3sccc32)CC1", "inhibition": "active: 86.2%"}, {"smiles": "Cn1c(CS(=O)Cc2c(Cl)cccc2Cl)nnc1SCc1ccc(Cl)cc1", "note": "(centres undefined)", "inhibition": "active: 31%"}, {"smiles": "COc1cccc(C(=O)Nc2nc3ccc(S(=O)(=O)N4CCCC4)cc3s2)c1", "inhibition": "5.11%"}, {"smiles": "COc1ccc(Nc2ncc3c(n2)CC(c2ccc(C)cc2)CC3=O)cc1", "note": "(centres undefined)", "inhibition": "active: 36.4%"}, {"smiles": "O=C(Nc1ccc(Br)cc1)c1cc(-c2cccs2)nc2ccccc12", "inhibition": "-21.7%"}, {"smiles": "CC1CCC(N2CC(=O)N(C3CCCCC3)C(c3ccc(Cl)cc3)C2=O)CC1", "note": "(centres undefined)", "inhibition": "-26.4%"}, {"smiles": "Cc1ccc2oc(C(=O)N(Cc3ccc(N(C)C)cc3)CC3CCCO3)c(C)c2c1", "note": "(centres undefined)", "inhibition": "11.9%"}, {"smiles": "CCOC(=O)c1c(NC(=O)CSc2cn(CCNC(=O)c3cccc(C(F)(F)F)c3)c3ccccc23)sc2c1CCC2", "inhibition": "3.64%"}, {"smiles": "CCOc1ccc(NC(=O)c2sc3nc4c(c(-c5ccccc5)c3c2N)C(=O)CC(C)(C)C4)cc1", "inhibition": "-3.39%"}, {"smiles": "CCOc1cc(C2C(C(=O)OC)=C(C)NC3=C2C(=O)c2ccccc23)ccc1OC", "note": "(centres undefined)", "inhibition": "-24.1%"}, {"smiles": "Cc1ccc(S(=O)(=O)c2cnc(SCC(=O)Nc3ccc4c(c3)OCCO4)[nH]c2=O)cc1Cl", "inhibition": "-20.2%"}, {"smiles": "Cc1ccccc1NC(=O)c1cn(-c2ccccc2)nc1-c1ccccc1", "inhibition": "-12%"}, {"smiles": "Cc1ccccc1-c1ccnc2[nH]n(-c3ccccc3)c(=O)c12", "inhibition": "-16.4%"}, {"smiles": "COc1cccc(CNc2ncnc3onc(C)c23)c1", "inhibition": "-2.77%"}, {"smiles": "O=C(Cn1c(=O)n(Cc2ccco2)c(=O)c2oc3ccccc3c21)Nc1ccc(F)c(Cl)c1", "inhibition": "-11.5%"}, {"smiles": "COc1ccc(N(CC(=O)N2CCc3ccccc3C2)S(=O)(=O)c2ccc(C)cc2)cc1Cl", "inhibition": "18.5%"}, {"smiles": "CN1CCN(CCCNC(=O)c2cnn(-c3ccc(F)cc3)c2-n2cccc2)CC1", "inhibition": "-7.7%"}, {"smiles": "c1ccc(-c2cc3ncc4c(n3n2)-c2ccccc2OC4)cc1", "inhibition": "13.7%"}, {"smiles": "CNc1ccc(-c2nc(-c3ccccc3C)no2)cc1[N+](=O)[O-]", "inhibition": "1.91%"}, {"smiles": "O=C(Nc1c(C(=O)N2CCN(c3ccccc3F)CC2)oc2ccccc12)c1ccco1", "inhibition": "-2.28%"}, {"smiles": "CSc1nc(-c2ccccc2Cl)nc2c1Cc1c(CO)cnc(C)c1O2", "inhibition": "3.94%"}, {"smiles": "COc1ccc(CNC(=O)Cn2c(=O)c3cccn3c3ccccc32)cc1", "inhibition": "21%"}, {"smiles": "COc1ccccc1C(CNC(=O)c1ccco1)N1CCCC1", "note": "(centres undefined)", "inhibition": "active: 37.3%"}, {"smiles": "CCc1nnc2c(N3CCN(c4cccc(C(F)(F)F)c4)CC3)nc3ccccc3n12", "inhibition": "11.9%"}, {"smiles": "CCCCC1=CC2=CC(=O)C(C)(OC(=O)CC)C(=O)C2=CN1Cc1ccc(OC)cc1", "note": "(centres undefined)", "inhibition": "active: 30.9%"}, {"smiles": "N#CC1=C2SCN(C3CCCCC3)CN2C(=O)CC1c1ccc(Br)cc1", "note": "(centres undefined)", "inhibition": "-12.1%"}, {"smiles": "CCOc1cc(C#N)c(NC(=O)c2ccc(OC)c(S(=O)(=O)N3CCN(c4ccccc4)CC3)c2)cc1OCC", "inhibition": "13.9%"}, {"smiles": "CCCOc1ccc(CNC(=O)c2oc3ccc4c(c3c2C)C(=O)CC(C)(CC)O4)cc1", "note": "(centres undefined)", "inhibition": "6.92%"}, {"smiles": "CCOC(=O)c1ccc(NC(=O)c2cn(-c3ccccc3)nc2-c2ccc(C)cc2)cc1", "inhibition": "-1.64%"}, {"smiles": "CCCc1ccc(S(=O)(=O)N2CCC(c3nnnn3-c3ccc(OC)cc3)CC2)cc1", "inhibition": "-1.83%"}, {"smiles": "CN(C)CCNC(=O)c1cccc(NS(=O)(=O)c2ccc(Cl)c(Cl)c2)c1", "inhibition": "active: 34.8%"}, {"smiles": "Cc1oc2cc3oc(=O)c(CC(=O)N4CCCCC4)c(C)c3cc2c1C", "inhibition": "7.75%"}, {"smiles": "CC1=C(C(=O)Nc2ccccc2)C(c2ccc(C)cc2)n2nc(SCc3ccccc3C)nc2N1", "note": "(centres undefined)", "inhibition": "-13.4%"}]}]}
